# Laboratory results from paper PMC10668032.
# The list shows a part of the results. At the low end of the ranking the order means little.
# Target: SIX1 homeodomain (reference allele) (UniProt Q15475)
# Test: universal protein binding microarray
# Conditions: Universal all-10-mer PBM (8x60K, AMADID 030236), 300 nM GST-tagged protein, Alexa Fluor 488 anti-GST; buffer, salt, pH and temperature not stated; high values mean tight binding; most listed sequences are background and not binding sites; double strand, one strand shown
row,Sequence,binding signal [E-score]
1,CCTCGACA,-0.0313
2,CACAACTC,-0.105
3,CTTCCGAC,-0.132
4,ATAACAGC,0.0395
5,AACCCTGA,0.041
6,ATGTAGGC,-0.0622
7,GTGAGGTA,-0.0175
8,CCATACAA,0.125
9,GCTCAACA,-0.0238
10,ATCGTTAA,0.126
11,ACCTTTAA,-0.0535
12,AGCACACT,0.0305
13,ATGTACGC,-0.0875
14,CCCTACTA,-0.00275
15,TTGATCAA,-0.00997
16,AAAAGTAC,-0.158
17,GTCACTCA,-0.0616
18,CTCACAAG,0.0536
19,CTTGTTTA,-0.0582
20,TTAGCCAA,-0.21
21,CGCCAGAG,-0.324
22,AAAGAGTG,-0.192
23,GATGATCC,0.454
24,ACACGAAC,-0.14
25,CAAGGTTA,-0.12

row,Sequence,binding signal [E-score]
1,AGGTTTCC,-0.221
2,CCGAGTAA,-0.0135
3,GTACGGAC,-0.226
4,AGCCCAGC,-0.157
5,GAAGACAA,-0.054
6,TGGTACCA,-0.176
7,GGCTTAAA,-0.149
8,GCAATCAA,-0.235
9,ACTCCGCT,-0.149
10,GGCTGTGA,0.0255
11,GAAGAGTC,-0.309
12,CCACTCAA,-0.138
13,ATCCACCG,0.235
14,CGTGATAC,0.48
15,ATCTCTCC,0.184
16,ACGGGGAT,0.296
17,AGCCGGTG,0.0707
18,GACCTACA,-0.267
19,AGACTGAG,-0.211
20,GAGAAGGC,-0.0328
21,ATCGGCCC,0.13
22,TGGTATAA,0.287
23,CCCGGAAA,-0.127
24,GAACGGCC,-0.101
25,ATGACCCC,0.282

row,Sequence,binding signal [E-score]
1,TGCACTAA,-0.0913
2,CATGAGTC,-0.0787
3,ACAGAGTA,-0.016
4,CAACTGAA,-0.214
5,CCGTAAGC,-0.038
6,CCCCTATC,0.405
7,CTATGGAA,-0.17
8,GCATCCAC,0.114
9,AATCGTAC,-0.058
10,CGCTTCTA,0.0616
11,AACTATTG,-0.0943
12,ACCGCAGG,-0.00646
13,CAAATGCC,-0.0998
14,CTCAGTTA,-0.096
15,CGCGGATC,0.365
16,CCATTGGC,0.0162
17,AACCCATG,0.0837
18,CCGCCAAG,-0.0729
19,ACCATACG,0.115
20,ACGCTGTC,-0.204
21,CGTCTCCA,0.0873
22,CTAGGTTC,-0.0301
23,GAAGGCAA,-0.124
24,CCGGACAC,0.192
25,GCCGTTTA,-0.0351

row,Sequence,binding signal [E-score]
1,GAATTGAC,-0.244
2,CCGTTGCC,-0.0842
3,AGAAAGCA,-0.0116
4,ACCGTGCA,0.0903
5,AGTCGATG,-0.0992
6,TGTGTCAA,0.0145
7,CAGCTATC,0.25
8,CCTGTATC,0.365
9,CGTAAGAA,-0.228
10,TGGGTGAA,-0.022
11,AATACGTG,0.267
12,CAGCCTGG,-0.0842
13,GCGATAAA,-0.168
14,ACATCCTA,0.0824
15,TAATGATA,0.36
16,AACACAGT,-0.158
17,TGTAGACA,0.0391
18,GTGCAGTA,0.0585
19,AGCTAAAA,-0.104
20,CCGTTGAA,-0.244
21,CGAATGCA,-0.079
22,AGTTTAAA,-0.146
23,AGACAAAG,-0.115
24,CGGTAACC,-0.0392
25,ATCGATCG,0.256

row,Sequence,binding signal [E-score]
1,CCTTACCC,0.0298
2,GAGCTCGA,-0.0499
3,CCCTAGAA,-0.197
4,ACACGCGT,0.0112
5,ATCTCACG,0.134
6,AATCATGC,0.047
7,ATAGACAC,0.285
8,CGAGGAAC,0.0208
9,GGTGTTCA,0.165
10,GCCGCCTA,-0.129
11,ACCGCCCG,-0.0255
12,AAAGCTCC,-0.248
13,CGACCAAC,-0.186
14,GTCTAGTA,0.158
15,CCTCATAA,0.00667
16,GACAGAAC,-0.0427
17,AGTTATTG,-0.0654
18,CTACGAAA,-0.0889
19,GTAATAGA,-0.0653
20,GGTACAAC,-0.117
21,ACTTTACT,-0.361
22,CTGCGAAA,-0.381
23,CTAGCGCC,-0.255
24,CGGTCTAA,-0.0459
25,CCCTATGA,0.0343

row,Sequence,binding signal [E-score]
1,CCGAGTGA,0.167
2,AGCGTGCG,-0.0271
3,AAAGTTCT,-0.347
4,GGTAGCGA,0.114
5,ATTTTAGA,0.0268
6,GAAGCGCC,-0.112
7,CGGTAAAC,-0.116
8,ACGCAAAG,-0.00129
9,GTTTCAGA,-0.151
10,ACGATGTG,0.0198
11,CATTGGCC,-0.103
12,AAATGTTA,-0.299
13,CCGACAGC,-0.151
14,ATCTTGTC,0.153
15,GACCCCGC,0.15
16,CGTACACA,0.0413
17,CTTCCACC,-0.191
18,CGTTGGGA,-0.114
19,CAAGTTCA,-0.0544
20,TCCCGTCA,-0.145
21,GCTGTGGA,0.143
22,CGAACACC,0.243
23,ATTCCATG,-0.0628
24,CGGCCGCC,-0.165
25,AAGAGCCA,-0.124

row,Sequence,binding signal [E-score]
1,CATTCTCC,-0.119
2,ATTTAGAC,0.134
3,AGATCGCG,0.22
4,ACGGTCAG,-0.288
5,GCGCTGTA,-0.108
6,GAGGCACA,-0.21
7,GTTTTTCA,-0.169
8,TCTCCCCA,0.22
9,ACGCCAGG,0.0961
10,CATGTGAG,0.152
11,AAGTGCAG,-0.22
12,GCGACTAA,-0.111
13,GGTAGAAC,-0.227
14,TATGAGCA,0.0495
15,CTTGTCAC,-0.27
16,CCAAGCTC,-0.143
17,AAGTCAGG,-0.172
18,CCTCCTAG,0.0733
19,AATAGCCT,0.0463
20,ACACGTGG,-0.0949
21,CGAAGTGA,-0.0232
22,AGTGATAT,0.451
23,CAACATGA,-0.174
24,AGTAGCCA,-0.191
25,CTGGGCTA,-0.00118

row,Sequence,binding signal [E-score]
1,AAAGAAGC,-0.342
2,CCTATCCA,0.232
3,GGGGAGAC,0.0858
4,CTGACAGA,0.081
5,ATATAATC,0.275
6,AGCTGCGA,-0.0992
7,ATGGAGCC,-0.0811
8,CTGTAGAC,-0.159
9,AGGGTAGC,-0.00115
10,AACTTGCT,-0.277
11,ATAAGGGA,0.00135
12,ACGGCTAT,0.0634
13,CAGTCTCA,-0.0203
14,GACAACCC,-0.126
15,ACACTAGC,-0.0114
16,GTACAAGA,-0.162
17,ATATGATA,0.443
18,GGGGAAGA,0.113
19,CGTCTGGC,-0.0601
20,AGCGCTCC,-0.163
21,ATATGAAA,0.0421
22,CTCGCCTC,-0.0845
23,AGCAAGAA,-0.137
24,ACCCGTCG,-0.0508
25,ACAGATCA,0.338

row,Sequence,binding signal [E-score]
1,ACGACATC,-0.139
2,TGGGGGAA,-0.106
3,AGGGTTAA,-0.0894
4,CCGCAGTA,-0.0172
5,TCAAAGGA,-0.162
6,ATTACTCA,0.0397
7,TGAAGGAA,-0.339
8,AGAAACTA,-0.224
9,GACCTGCC,-0.251
10,GCAGGTGA,-0.0188
11,ACACCGAC,0.256
12,CGCGGATA,0.388
13,CTTATCTC,0.0638
14,AATTGCTC,-0.227
15,GTAAATTA,-0.199
16,CTTGATCA,0.218
17,TCCCAAAA,-0.117
18,GAGGCGGA,0.0158
19,ATCCAGAC,0.0875
20,GACAGATC,0.286
21,ATTATGCC,0.109
22,ACAGATAC,0.341
23,GAAGCGCA,-0.293
24,CACGCTAC,-0.107
25,CCCCGAAA,0.0522

row,Sequence,binding signal [E-score]
1,AGCGAAGA,-0.042
2,GCGGTTGA,-0.0628
3,ATGACACA,-0.0804
4,GCTGCCCC,-0.0741
5,GCGAAATA,-0.0624
6,CGTTAACC,-0.0549
7,ATGAGGCC,-0.244
8,GCAACCGA,0.0749
9,CTAAGGCA,-0.25
10,CTAATTAG,-0.0446
11,ACACATCC,-0.16
12,CAGGGCTC,-0.0208
13,ACATCGGT,0.0242
14,AGTCTTTC,-0.228
15,GTAGGCGA,0.0588
16,CCGAATGA,0.127
17,CCACTGCC,-0.104
18,TAGCTTGA,-0.0241
19,GGGGCGTA,0.166
20,GGCGGATA,0.403
21,GGTGAGTA,0.0492
22,GCTCATGA,0.0179
23,CGGGTGTA,0.265
24,ACTCATTG,-0.123
25,CGGAACAC,0.0298

row,Sequence,binding signal [E-score]
1,AACCGACT,-0.173
2,AACTCAGA,-0.0228
3,CGCTGGAG,-0.111
4,CCGTTTAG,0.0892
5,GACAGTCA,-0.259
6,AAAAACTC,-0.0506
7,ATGGTGTA,0.305
8,GATTTCAC,0.056
9,AACAACGC,-0.0876
10,ATCCTGAC,0.228
11,GGGATCAA,0.386
12,TAACAGTA,-0.0329
13,CAGCGTCA,0.0347
14,CCCCCAGC,-0.196
15,CTAAAGCA,-0.185
16,ACCTGCGT,-0.0701
17,AGCATGGC,-0.309
18,TACTCCTA,0.096
19,ACGTCCGA,-0.0253
20,TAAGGAGA,0.0208
21,CACGCCGA,-0.0244
22,TAGGAGCA,-0.202
23,AAACCGGC,0.0397
24,CGCAACCG,0.0596
25,ATGTAGCA,-0.0886

row,Sequence,binding signal [E-score]
1,AATCCTTC,0.0148
2,GACCGACA,-0.0563
3,GCAGGAGA,0.153
4,GAAGATAA,0.154
5,AACTACAG,-0.126
6,CTGCAGCA,-0.0458
7,GCTCCCCA,-0.127
8,ATGCAAAA,-0.104
9,CACTAATA,0.215
10,ATAATAGG,0.168
11,ATCTATGA,0.16
12,AAAGATGC,-0.276
13,GCTTTCTA,-0.0932
14,GTCACTAA,-0.0161
15,AAACGCAG,-0.0959
16,CGATTTCC,-0.264
17,AAGATTAT,0.154
18,ACGCGGCC,-0.218
19,AAGGCTAT,0.149
20,AACTGCGC,-0.102
21,TAAATATA,0.14
22,AAATCCCT,0.0687
23,AAGAAACA,-0.197
24,CGCTCACA,-0.0331
25,AATCAACC,-0.205

row,Sequence,binding signal [E-score]
1,CGTGGGAA,-0.218
2,GACTTGGA,0.0302
3,TTCGGCAA,-0.191
4,GGAAAGCC,-0.176
5,AAACGTGC,-0.358
6,AGCCCCAC,0.0896
7,AACGAATC,0.0888
8,GGTTTTAC,-0.101
9,CTACGTAC,0.0897
10,AAGGGAAC,-0.233
11,CCTGCCCG,-0.008
12,AAAGGCGA,-0.0981
13,GGTCCTAA,-0.0964
14,AAGCCTCG,-0.159
15,GACAAGCC,-0.17
16,GTGGGACA,-0.114
17,AGTTGCTC,-0.0738
18,ATCGAAAG,-0.00986
19,ATTCAGTC,-0.253
20,CCGAAGCG,-0.0645
21,ATGACAAG,0.0631
22,ACCCAATA,0.158
23,GAGTCCGC,-0.0457
24,AGTTCCGC,-0.173
25,GACTGGTA,0.108

row,Sequence,binding signal [E-score]
1,CACATGGC,-0.233
2,ATTGGAGC,-0.0555
3,CTAGTTGC,-0.181
4,ATGACATC,-0.166
5,GCAGATAA,0.0799
6,AGTTAATC,0.182
7,CGTGGAAC,-0.242
8,TAGGGAGA,0.177
9,CTCACTTC,0.0807
10,TAGTCTCA,0.0193
11,CCGTACCC,0.0343
12,AAGACTGG,-0.0946
13,TTGACCAA,-0.208
14,ACTAATTC,-0.0862
15,AATGTCCG,-0.125
16,ACCTTCGC,-0.0658
17,ACATAGCT,0.0301
18,AAATACAA,-0.0286
19,GGCCTCCC,-0.119
